# Measurements as given in the supplement of paper PMC8728848.
# The list shows a part of the results.
# Key:
# Test in all cases: glycan array binding signal (z-score within array); higher = stronger binding
# Conditions in all cases: glycan notation: IUPAC condensed, linker removed
# [1] = target: Gal(b1-3)[Fuc(a1-4)]GlcNAc(b1-3)Gal(b1-4)[Fuc(a1-3)]GlcNAc
# Method in brief: (§1)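 Glycan array data came from 3228 arrays in the Consortium for Functional Glycomics database, and only arrays with an available protein sequence were kept. Glycan names were put into IUPAC-condensed notation, and columns mapping to the same glycan were averaged. The binding signal is a within-array Z-score, averaged across arrays of one protein sequence run at different concentrations or buffers and across linkers. A negative Z-score can be read as non-binding.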
# [2] = target: Gal(b1-3)[GlcNAc(b1-6)]GalNAc
# Method in brief: as §1
# [3] = target: Gal(b1-3)[Neu5Ac(a2-6)]GalNAc
# Method in brief: as §1
# [4] = target: Gal(b1-3)[Neu5Ac(a2-6)]GlcNAc(b1-6)Gal(b1-4)Glc
# Method in brief: as §1
# [5] = target: Gal(b1-3)[Neu5Ac(b2-6)]GalNAc
# Method in brief: as §1
# [6] = target: Gal(b1-4)GalNAc(a1-3)[Fuc(a1-2)]Gal(b1-4)GlcNAc
# Method in brief: as §1
# [7] = target: Gal(b1-4)GalNAc(b1-3)[Fuc(a1-2)]Gal(b1-4)GlcNAc
# Method in brief: as §1
# Gal(b1-4)Glc = target: Gal(b1-4)Glc
# Method in brief: as §1
# Gal(b1-4)Glc6S = target: Gal(b1-4)Glc6S
# Method in brief: as §1
# Gal(b1-4)GlcNAc = target: Gal(b1-4)GlcNAc
# Method in brief: as §1
# [8] = target: Gal(b1-4)GlcNAc(b1-2)Man(a1-3)[Gal(b1-4)GlcNAc(b1-2)Man(a1-6)]Man(b1-4)GlcNAc(b1-4)GlcNAc
# Method in brief: as §1
# [9] = target: Gal(b1-4)GlcNAc(b1-3)Gal(b1-4)Glc
# Method in brief: as §1
# [10] = target: Gal(b1-4)GlcNAc(b1-3)Gal(b1-4)GlcNAc
# Method in brief: as §1
# [11] = target: Gal(b1-4)GlcNAc(b1-3)Gal(b1-4)GlcNAc(b1-3)Gal(b1-4)GlcNAc
# Method in brief: as §1
# [12] = target: Gal(b1-4)GlcNAc(b1-3)Gal(b1-4)[Fuc(a1-3)]GlcNAc(b1-3)Gal(b1-4)[Fuc(a1-3)]GlcNAc
# Method in brief: as §1
# [13] = target: Gal(b1-4)GlcNAc(b1-3)GalNAc
# Method in brief: as §1
# [14] = target: Gal(b1-4)GlcNAc(b1-3)[Gal(b1-4)GlcNAc(b1-6)]GalNAc
# Method in brief: as §1
# [15] = target: Gal(b1-4)GlcNAc(b1-6)Gal(b1-4)GlcNAc(b1-6)GalNAc
# Method in brief: as §1
# [16] = target: Gal(b1-4)GlcNAc(b1-6)GalNAc
# Method in brief: as §1
# [17] = target: Gal(b1-4)GlcNAc(b1-6)[Gal(b1-3)]GalNAc
# Method in brief: as §1
# Gal3S(b1-3)GalNAc = target: Gal3S(b1-3)GalNAc
# Method in brief: as §1
# Gal3S(b1-3)GlcNAc = target: Gal3S(b1-3)GlcNAc
# Method in brief: as §1
# [18] = target: Gal3S(b1-3)[Fuc(a1-4)]GlcNAc
# Method in brief: as §1
# Gal3S(b1-4)Glc = target: Gal3S(b1-4)Glc
# Method in brief: as §1
# Gal3S(b1-4)Glc6S = target: Gal3S(b1-4)Glc6S
# Method in brief: as §1
# Gal3S(b1-4)GlcNAc = target: Gal3S(b1-4)GlcNAc
# Method in brief: as §1
# Gal3S(b1-4)GlcNAc6S = target: Gal3S(b1-4)GlcNAc6S
# Method in brief: as §1
# Gal3S6S(b1-4)GlcNAc = target: Gal3S6S(b1-4)GlcNAc
# Method in brief: as §1
# Gal3S6S(b1-4)GlcNAc6S = target: Gal3S6S(b1-4)GlcNAc6S
# Method in brief: as §1
# Gal4S(b1-4)GlcNAc = target: Gal4S(b1-4)GlcNAc
# Method in brief: as §1
# Gal4S6S(b1-4)GlcNAc = target: Gal4S6S(b1-4)GlcNAc
# Method in brief: as §1
# Gal6S(b1-4)Glc = target: Gal6S(b1-4)Glc
# Method in brief: as §1
# Gal6S(b1-4)Glc6S = target: Gal6S(b1-4)Glc6S
# Method in brief: as §1
# Gal6S(b1-4)GlcNAc = target: Gal6S(b1-4)GlcNAc
# Method in brief: as §1
# GalNAc(a1-3)Gal = target: GalNAc(a1-3)Gal
# Method in brief: as §1
# GalNAc(a1-3)GalNAc = target: GalNAc(a1-3)GalNAc
# Method in brief: as §1
# [19] = target: GalNAc(b1-3)Gal(a1-4)Gal(b1-4)GlcNAc
# Method in brief: as §1
# GalNAc(b1-3)GalNAc = target: GalNAc(b1-3)GalNAc
# Method in brief: as §1
# GalNAc(b1-4)GlcNAc = target: GalNAc(b1-4)GlcNAc
# Method in brief: as §1
# Glc(a1-4)Glc = target: Glc(a1-4)Glc
# Method in brief: as §1
# Glc(a1-6)Glc(a1-6)Glc = target: Glc(a1-6)Glc(a1-6)Glc
# Method in brief: as §1
# Glc(b1-4)Glc = target: Glc(b1-4)Glc
# Method in brief: as §1
# Glc(b1-6)Glc = target: Glc(b1-6)Glc
# Method in brief: as §1
# GlcA(b1-3)Gal = target: GlcA(b1-3)Gal
# Method in brief: as §1
# GlcA(b1-6)Gal = target: GlcA(b1-6)Gal
# Method in brief: as §1
binder,measurement,setting,value
"DEC205 (Homo sapiens), O60449 (protein) MRTGWATPRRPAGLLMLLFWFFDLAEPSGRAANDPFTIVHGNTGKCIKPVYGWIVADDCDETEDKLWKWVSQHRLFHLHSQKCLGLDITKSVNELRMFSCDSSAMLWWKCEHHSLYGAARYRLALKDGHGTAISNASDVWKKGGSEESLCDQPYHEIYTRDGNSYGRPCEFPFLIDGTWHHDCILDEDHSGPWCATTLNYEYDRKWGICLKPENGCEDNWEKNEQFGSCYQFNTQTALSWKEAYVSCQNQGADLLSINSAAELTYLKEKEGIAKIFWIGLNQLYSARGWEWSDHKPLNFLNWDPDRPSAPTIGGSSCARMDAESGLWQSFSCEAQLPYVCRKPLNNTVELTDVWTYSDTRCDAGWLPNNGFCYLLVNESNSWDKAHAKCKAFSSDLISIHSLADVEVVVTKLHNEDIKEEVWIGLKNINIPTLFQWSDGTEVTLTYWDENEPNVPYNKTPNCVSYLGELGQWKVQSCEEKLKYVCKRKGEKLNDASSDKMCPPDEGWKRHGETCYKIYEDEVPFGTNCNLTITSRFEQEYLNDLMKKYDKSLRKYFWTGLRDVDSCGEYNWATVGGRRRAVTFSNWNFLEPASPGGCVAMSTGKSVGKWEVKDCRSFKALSICKKMSGPLGPEEASPKPDDPCPEGWQSFPASLSCYKVFHAERIVRKRNWEEAERFCQALGAHLSSFSHVDEIKEFLHFLTDQFSGQHWLWIGLNKRSPDLQGSWQWSDRTPVSTIIMPNEFQQDYDIRDCAAVKVFHRPWRRGWHFYDDREFIYLRPFACDTKLEWVCQIPKGRTPKTPDWYNPDRAGIHGPPLIIEGSEYWFVADLHLNYEEAVLYCASNHSFLATITSFVGLKAIKNKIANISGDGQKWWIRISEWPIDDHFTYSRYPWHRFPVTFGEECLYMSAKTWLIDLGKPTDCSTKLPFICEKYNVSSLEKYSPDSAAKVQCSEQWIPFQNKCFLKIKPVSLTFSQASDTCHSYGGTLPSVLSQIEQDFITSLLPDMEATLWIGLRWTAYEKINKWTDNRELTYSNFHPLLVSGRLRIPENFFEEESRYHCALILNLQKSPFTGTWNFTSCSERHFVSLCQKYSEVKSRQTLQNASETVKYLNNLYKIIPKTLTWHSAKRECLKSNMQLVSITDPYQQAFLSVQALLHNSSLWIGLFSQDDELNFGWSDGKRLHFSRWAETNGQLEDCVVLDTDGFWKTVDCNDNQPGAICYYSGNETEKEVKPVDSVKCPSPVLNTPWIPFQNCCYNFIITKNRHMATTQDEVHTKCQKLNPKSHILSIRDEKENNFVLEQLLYFNYMASWVMLGITYRNNSLMWFDKTPLSYTHWRAGRPTIKNEKFLAGLSTDGFWDIQTFKVIEEAVYFHQHSILACKIEMVDYKEEHNTTLPQFMPYEDGIYSVIQKKVTWYEALNMCSQSGGHLASVHNQNGQLFLEDIVKRDGFPLWVGLSSHDGSESSFEWSDGSTFDYIPWKGQTSPGNCVLLDPKGTWKHEKCNSVKDGAICYKPTKSKKLSRLTYSSRCPAAKENGSRWIQYKGHCYKSDQALHSFSEAKKLCSKHDHSATIVSIKDEDENKFVSRLMRENNNITMRVWLGLSQHSVDQSWSWLDGSEVTFVKWENKSKSGVGRCSMLIASNETWKKVECEHGFGRVVCKVPLGPDYTAIAIIVATLSILVLMGGLIWFLFQRHRLHLAGFSSVRYAQGVNEDEIMLPSFHD",glycan array binding signal (z-score),[1],0.518
same,glycan array binding signal (z-score),[2],-0.217
same,glycan array binding signal (z-score),[3],-0.279
same,glycan array binding signal (z-score),[4],-0.052
same,glycan array binding signal (z-score),[5],-0.212
same,glycan array binding signal (z-score),[6],0.06
same,glycan array binding signal (z-score),[7],0.768
same,glycan array binding signal (z-score),Gal(b1-4)Glc,-0.117
same,glycan array binding signal (z-score),Gal(b1-4)Glc6S,0.134
same,glycan array binding signal (z-score),Gal(b1-4)GlcNAc,-0.361
same,glycan array binding signal (z-score),[8],0.21
same,glycan array binding signal (z-score),[9],-0.168
same,glycan array binding signal (z-score),[10],-0.126
same,glycan array binding signal (z-score),[11],-0.347
same,glycan array binding signal (z-score),[12],-0.158
same,glycan array binding signal (z-score),[13],0.072
same,glycan array binding signal (z-score),[14],-0.095
same,glycan array binding signal (z-score),[15],-0.306
same,glycan array binding signal (z-score),[16],-0.27
same,glycan array binding signal (z-score),[17],-0.168
same,glycan array binding signal (z-score),Gal3S(b1-3)GalNAc,-0.362
same,glycan array binding signal (z-score),Gal3S(b1-3)GlcNAc,-0.36
same,glycan array binding signal (z-score),[18],0.108
same,glycan array binding signal (z-score),Gal3S(b1-4)Glc,-0.304
same,glycan array binding signal (z-score),Gal3S(b1-4)Glc6S,-0.138
same,glycan array binding signal (z-score),Gal3S(b1-4)GlcNAc,-0.384
same,glycan array binding signal (z-score),Gal3S(b1-4)GlcNAc6S,-0.123
same,glycan array binding signal (z-score),Gal3S6S(b1-4)GlcNAc,-0.056
same,glycan array binding signal (z-score),Gal3S6S(b1-4)GlcNAc6S,0.251
same,glycan array binding signal (z-score),Gal4S(b1-4)GlcNAc,-0.285
same,glycan array binding signal (z-score),Gal4S6S(b1-4)GlcNAc,-0.153
same,glycan array binding signal (z-score),Gal6S(b1-4)Glc,-0.056
same,glycan array binding signal (z-score),Gal6S(b1-4)Glc6S,-0.209
same,glycan array binding signal (z-score),Gal6S(b1-4)GlcNAc,-0.076
same,glycan array binding signal (z-score),GalNAc(a1-3)Gal,-0.394
same,glycan array binding signal (z-score),GalNAc(a1-3)GalNAc,-0.426
same,glycan array binding signal (z-score),[19],0.208
same,glycan array binding signal (z-score),GalNAc(b1-3)GalNAc,-0.35
same,glycan array binding signal (z-score),GalNAc(b1-4)GlcNAc,-0.284
same,glycan array binding signal (z-score),Glc(a1-4)Glc,-0.389
same,glycan array binding signal (z-score),Glc(a1-6)Glc(a1-6)Glc,-0.012
same,glycan array binding signal (z-score),Glc(b1-4)Glc,-0.201
same,glycan array binding signal (z-score),Glc(b1-6)Glc,-0.218
same,glycan array binding signal (z-score),GlcA(b1-3)Gal,-0.166
same,glycan array binding signal (z-score),GlcA(b1-6)Gal,1.28
